Test results taken from the supplement of paper PMC3334620.
Whole data set: some 33,000 sequences, median “E-score (-0.5 to 0.5)” near -0.013, cut for the highest 2% near 0.3. The list shows a part of the results.

Target: T1, Msn1 (UniProt P22148)
T1 sequence: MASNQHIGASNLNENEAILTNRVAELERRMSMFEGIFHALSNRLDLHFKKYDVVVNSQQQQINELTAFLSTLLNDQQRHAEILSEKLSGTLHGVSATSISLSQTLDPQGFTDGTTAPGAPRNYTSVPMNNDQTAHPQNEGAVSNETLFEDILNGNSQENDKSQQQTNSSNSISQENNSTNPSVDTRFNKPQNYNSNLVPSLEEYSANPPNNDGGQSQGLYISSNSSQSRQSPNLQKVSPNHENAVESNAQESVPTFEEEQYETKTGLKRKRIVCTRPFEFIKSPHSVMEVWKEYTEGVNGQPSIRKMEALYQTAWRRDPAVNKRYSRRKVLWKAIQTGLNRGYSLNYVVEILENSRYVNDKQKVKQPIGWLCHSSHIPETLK
Test: PBM E-score (8-mer binding enrichment) (E-score (-0.5 to 0.5)); higher = stronger / more preferred TF binding; most listed sequences are background and not binding sites
Conditions: protein concentration: 200 nM; construct: GST-full length
Outline: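 Detection of bound protein used fluorescent anti-GST, with scans normalised by masliner. The proteins were GST-tagged yeast transcription factors applied at about 100-200 nM to universal all-10-mer Agilent arrays made double-stranded by primer extension. Each ungapped eight-base word, pooled with its reverse complement, was scored with an E-score from the Universal PBM Analysis Suite.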

Sequence | PBM E-score
ACCTAGAC | -0.00118
CAGGTCCG | -0.00597
CCGGTCCA | -0.199
AGCTTAGG | -0.166
AGGTCCCA | -0.081
CCAGGTGC | -0.205
AGTAGGTC | -0.148
CGGGGGAA | -0.274
AGTAGGAA | -0.0575
CACGTTTA | -0.053
CTCACCTA | -0.062
GTGAACCA | 0.0722
TACTCCTA | -0.251
GGTGTGCA | -0.214
CTAGTTCC | 0.11
CTCCAAAC | -0.0642
CGAAGGTC | 0.00281
ATCGGGGG | -0.223
ATTGGCTC | 0.0719
ACGCCCTC | -0.117
GAATACAA | 0.174
GCGAAAGA | -0.0896
AGCGAAAT | -0.116
CGTTGCGC | -0.0291
GACAAAAA | 0.466

Sequence | PBM E-score
ATTCACTC | -0.0244
AAAACCAA | 0.0961
ACTGTTCT | 0.0566
CCTACGTC | -0.064
ATGAATTA | 0.0142
CATTAACC | 0.11
ATCAGTCG | 0.227
CATTCCCG | 0.0349
ATCTATGG | -0.177
AATGGGTG | -0.0072
ATACTTGG | -0.113
GGGGAGTA | -0.154
AAAGGCCG | -0.00669
GTGTCAAA | 0.096
ACGAGACA | 0.275
ATTTCAAG | 0.145
GGCAGTAC | 0.0828
CCATTGGG | -0.142
GTATACAA | 0.176
GCGCATCC | -0.134
AAGAGAGA | -0.249
GCCGGTAC | 0.0172
ACATGTCC | 0.48
CAGTACAA | 0.262
AAAAGCTT | 0.0152

Sequence | PBM E-score
GTACGGGA | -0.113
AATCTCAC | -0.161
CAGTGATA | 0.0852
CATCCTCA | -0.111
AATTCCAG | 0.032
AATTTAAG | 0.013
GTTCACGA | 0.0786
AAGATTCT | -0.14
GGATGTAC | 0.00429
CAGTTCTA | 0.0716
CTCTACAG | -0.108
ATAGCTAA | -0.195
ATGGCTAA | 0.0228
AAACGCGG | 0.188
ACTAGGAA | -0.026
ATCTCCCG | -0.12
CGTTAGTC | 0.0467
AATTAGGT | 0.0808
CGGACGTA | 0.0131
CCGCCGAC | -0.125
GCAAATGC | -0.113
ATCGAATC | 0.0784
ATTAAGCC | -0.0726
CTCTGAAA | 0.0529
AGCGACCA | 0.0404

Sequence | PBM E-score
CCGCCCGG | -0.125
GAGCAGTA | 0.0147
CATCTATA | -0.0122
AATTATGC | 0.119
GCCTCAGC | -0.159
TGAGTCAA | 0.102
AGCCAGCA | -0.153
CTACTTTA | 0.00684
CTCGTGTC | 0.232
AACGGTAC | 0.191
AATGATCA | -0.0264
GCATTCGC | -0.202
CCTGCCCC | -0.237
CCACTTAG | -0.0135
AACGCTCA | -0.0888
CTATTATC | 0.104
CTCTAAGA | 0.15
GACTCAAA | 0.0675
CAATCTGC | 0.045
GATGAGTA | -0.00618
CAGCGTCC | 0.0415
CAAACACC | -0.00246
ATTCCGGC | -0.0277
GTAGGGAA | -0.0402
GTGGCTGA | -0.0321

Sequence | PBM E-score
ACAGCTTC | -0.111
GTCTTACA | 0.0277
GAATCTTA | 0.172
ATAAGTGC | 0.0659
CAAAACCA | 0.16
GTCTCAAA | 0.234
GATTCACA | -0.117
AAAACCTG | 0.0428
CGTCCTGA | 0.102
CCCTCGTC | -0.129
CTCAAAAC | 0.0824
CAGTTTAG | 0.0485
CGGGATGA | -0.123
CAAACCTC | -0.244
GAACTGTA | 0.0707
CTGTCAAC | 0.101
CTGCTCAC | -0.139
CAAATAGG | -0.00081
GGCATCAA | -0.203
CCATCACG | -0.0678
AGACTTGG | -0.143
ACACGACC | 0.0198
GTAGTGCA | -0.0542
AACTAACT | 0.052
ATAGTTCC | 0.0925

Sequence | PBM E-score
GCCGGTAA | 0.146
CCGGCCTC | -0.233
CATCTCGA | 0.149
TCAAAAGA | -0.0225
GCAGAACC | -0.134
CAAATTCG | 0.0807
ACCTGCGA | -0.101
TAGCTCGA | -0.0362
AATTTGTA | 0.28
CCTTCTGC | -0.234
AGGAAACA | 0.205
AGGATAAA | 0.18
AATTCGCG | 0.0725
ACCAACGC | 0.00353
CTGATGGC | -0.0801
ATTGTTAG | 0.145
GTATTCTA | 0.112
AATCAGCA | 0.106
ACAACATA | 0.235
GACGACCA | -0.121
AGACATCC | 0.328
AGCCATAA | 0.00903
GAGACTTA | 0.0587
CTCCATGA | 0.00661
AAGCGTAA | -0.0351

Sequence | PBM E-score
TCAAACGA | 0.00197
GACATATA | 0.448
TACTGCGA | -0.1
CACGGACA | 0.455
AGGCCCCT | -0.293
CATTTTAC | 0.287
ATTCATTC | 0.138
GCCTGCTA | -0.162
CCACCCAC | -0.245
AGTGAGGC | -0.218
AGCACGAA | 0.153
GTAAGTAC | 0.139
CTTATGCA | -0.0615
ACCAAATC | 0.0268
AGATTACC | 0.0696
AGGTTCTC | -0.167
CTTCGGCA | -0.00159
CCTCCCAC | -0.127
TAATGGTA | -0.131
ATCTGGCC | -0.0799
GTCTTGTA | 0.0838
ATACCGCC | -0.0236
TAATTGCA | 0.0515
GTCTAGAC | 0.0977
GCAGCTTA | -0.0395

Sequence | PBM E-score
CCCCAAGA | -0.0452
ACGAGTTA | -0.0191
ATTGTATG | 0.14
AATGCCTC | -0.129
CAGCCGTC | -0.095
CGCTATTC | 0.204
TAGTAACA | 0.0837
AAATTGTA | 0.222
GAAAGACA | 0.227
CGCATGGC | -0.162
CGGCAATC | -0.0265
AGTATTTG | 0.0221
GATGACGC | -0.0671
AGAGCAAC | -0.275
CCGGATCG | -0.0371
ACGTAACT | -0.0733
ATTGCGGG | -0.0275
AACGTTAT | 0.0975
CTCATTCC | -0.0923
ACATACCA | 0.13
GGTCGGGA | 0.0212
GCAGTTCA | -0.101
CGTTCTGA | -0.109
CCGGGTTA | -0.0177
AGAACTCG | 0.0198

Sequence | PBM E-score
CAGGTTTC | -0.0386
AAGACCGA | 0.135
AGCGCTAT | 0.0204
CTGTGAGA | 0.00231
AAGCGCTC | -0.0777
GTGTGCCA | -0.0737
ATTATCCG | 0.246
AAGTCAAT | 0.07
ATTCCTAC | -0.0406
AGTCACGA | 0.0637
CCGGAGGC | -0.104
CTCTCACA | -0.0333
CGTTACTA | 0.00496
ATTCGGTG | 0.0437
AGAGTCCA | -0.182
AAGCTACT | -0.101
ACCTTGCG | -0.062
CTACCGGC | -0.209
CAAAGAAA | 0.0621
